Measured values reported in PubChem BioAssay AID493014 (National Center for Advancing Translational Sciences (NCATS), 2011).
In all, about 340,000 compounds went through this assay and about 170 (0.05%) were called active. Not shown: some 26% with an inconclusive outcome. Calls come from the whole dose curve; as a rule, active = well fitted inhibition curve with a large enough effect in the signal ratio, with a control signal flat (not every such curve was filed as active); inconclusive = small, poorly fitted or top-dose-only effect, or effect the other way, or a change in a side signal; inactive = flat fitted curve, though single readings scatter; the % refers to the signal ratio. This is a selection; strong and weak results do not stand in their true shares.

Assay: qHTS Assay to Find Inhibitors of Chronic Active B-Cell Receptor Signaling;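 for activity change, negative = inhibition: plate controls were basal doxycycline-induced cells for no effect and cells given 10 µM MG132 for full effect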
Conditions: ABC-DLBCL IkBa-CBG/CBR reporter, luminescence ratio (green luciferase fused to IkBa over red control in TMD8 lymphoma cells), 4 h; series mostly up to 46.1 µM; activity change, negative = inhibition: at the top concentration
Procedure, shortened: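 Compounds up to 46 uM were incubated four hours with TMD8 cells whose green CBG68 luciferase is fused to IkappaBalpha; red CBR luminescence normalised the signal, and concentration-effect curves were fitted to fusion, red and ratio data.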
Potency is the fitted concentration of half-maximal effect.

Row | Structure (SMILES) | activity change, negative = inhibition | Potency
1 | C=CC[C@@H](CC(=O)NCCO)C(=O)N[C@@H](C)COC(=O)[C@H](CC=C)CC(=O)OC(C)(C)C | inactive: -2.61% | 
2 | Cc1ccc2[nH]c(-c3ccccc3)cc(=O)c2c1 |  | active: 5.62 µM
3 | CCO[C@H]1OC(C(=O)Nc2ccccc2)=C[C@@H](c2coc3ccccc3c2=O)[C@@H]1CCCO | inactive: 3.37% | 
4 | O=C(NC(Cc1c[nH]c2ccccc12)C(=O)O)/C(=C/c1ccc2c(c1)OCO2)NC(=O)c1ccccc1 (stereo unspecified) | inactive: 5.63% | 
5 | COc1cc(/C=N/NC(=O)c2[nH]nc3c2CCc2ccccc2-3)ccc1O |  | active: 20.6 µM
6 | Cc1ccc(S(=O)(=O)N2CCC[C@H]2C(=O)NCc2ccccc2Cl)cc1 | inactive: -2.57% | 
7 | C=CCC[C@@H](Cc1ccc(F)cc1)C(=O)OC[C@@H](Cc1c[nH]c2ccccc12)NC(=O)[C@H](CC=C)CC(=O)N[C@H](CO)Cc1ccccc1 | inactive: -0.0671% | 
8 | N#C/C(=C(/O)CCl)c1nnc2n1CCCCC2 | inactive: 0.971% | 
9 | COC(=O)c1ccccc1NC(=O)Cn1nnc(-c2ccc(OC)cc2)n1 | inactive: -2.1% | 
10 | C[C@H]1CC[C@@]2(O[C@@H](CCO)C[C@@H](O)[C@@H]2O)O1 | inactive: -3.35% | 
11 | C[C@@H](C(=O)O)[C@@H]1C[C@@]1(C)[C@@H](NC(=O)OCc1ccccc1)c1ccccc1 | inactive: 3.09% | 
12 | CC(=O)O[C@]1(C(C)=O)CC[C@H]2[C@@H]3C=C(C)C4=CC(=O)CC[C@]4(C)[C@H]3CC[C@@]21C | inactive: 2.51% | 
13 | CC(=O)NNc1ncnc2c1cnn2-c1ccccc1 | inactive: 14.2% | 
14 | OCC[C@H]1C[C@H](O)[C@@H](O)[C@@]2(OCc3ccccc32)O1 | inactive: 7.55% | 
15 | CC1CCCC(C)N1NC(=O)c1ccc(Cl)c(S(N)(=O)=O)c1 (stereo unspecified) | inactive: -1.98% | 
16 | Cc1noc(NS(=O)(=O)c2ccc(N/C=C\C(=O)c3ccccc3)cc2)c1C | inactive: 2.74% | 
17 | COC(=O)C1=C(C)N(Cc2ccccc2)C(=NCc2cccc(Cl)c2)N[C@H]1c1cccc(F)c1 | inactive: -0.427% | 
18 | CCOC(=O)N1CCN(C(=O)/C(=C\c2cccs2)NC(=O)c2cccs2)CC1 | inactive: -1.3% | 
19 | O=C1OC[C@@H]2CCCN2C(=O)[C@@H](CC(=O)N(CCO)Cc2ccccc2)C/C=C\C[C@@H]1Cc1ccc(F)cc1 | inactive: -0.763% | 
20 | CCCCN(C)CCNC(=O)CN1C(=O)CSc2ccc(S(=O)(=O)N3CCCCC3)cc21 | inactive: 6.15% | 
21 | CC(C)(C)NCC(O)COc1cccc2c1CC(O)C(O)C2 (stereo unspecified) | inactive: 0.85% | 
22 | CN(C)CCOC(=O)C1(c2ccccc2)CCOCC1 | inactive: -1.43% | 

Row | Structure (SMILES) | activity change, negative = inhibition | Potency
23 | OCC[C@H]1C[C@@H](O)[C@H](O)[C@]2(CCc3ccccc3CO2)O1 | inactive: -0.841% | 
24 | COC(=O)[C@@H]1C[C@@]2(O)[C@@H](O)[C@@H](O)[C@@H](O)C[C@H]2N1CC(c1ccccc1)c1ccccc1 | inactive: 1.77% | 
25 | NC(=O)N1c2ccccc2CC(=O)c2ccccc21 | inactive: 0.449% | 
26 | CCOC(=O)[C@@H]1[C@H]2COc3cc(OC)ccc3[C@@H]2N2C(=O)N(c3ccc(Br)cc3)C(=O)[C@@]12C | inactive: 24.8% | 
27 | C=CCn1c(SCCCC)nc(O)cc1=O | inactive: 3.74% | 
28 | O=C(Nc1cccnc1)c1coc(=O)c2ccccc12 |  | active: 18.4 µM
29 | COc1ccc(C(=O)N/C(=C\c2cccs2)c2nc3ccccc3[nH]2)cc1OC | inactive: -0.173% | 
30 | CC(C)(C)OC(=O)C[C@H]1C/C=C\C[C@H](CC(=O)N(CCO)Cc2ccccc2)C(=O)N2CCC[C@H]2COC1=O | inactive: 3.63% | 
31 | O=C(C[C@H]1C/C=C\C[C@@H](NC(=O)OCC2c3ccccc3-c3ccccc32)C(=O)O[C@@H](c2ccccc2)CNC1=O)N[C@H](CO)Cc1ccccc1 | inactive: -0.319% | 
32 | C=CC[C@H](CC(=O)N[C@H](CO)Cc1ccccc1)C(=O)N[C@H](COC(=O)[C@H](CC=C)CC(=O)OC(C)(C)C)Cc1c[nH]c2ccccc12 | inactive: 8.38% | 
33 | O=C(C[C@H]1C/C=C\CC[C@@H](Cc2ccc(F)cc2)C(=O)OC[C@H]2CCCN2C1=O)N[C@H](CO)Cc1ccccc1 | inactive: -4.17% | 
34 | COC(C[C@H](O)C[C@H](O)[C@H](C)OCc1ccccc1)OC | inactive: 4.48% | 
35 | COC(=O)[C@@H](N)Cc1ccc(O)c(O)c1 | inactive: 0.557% | 
36 | Cc1cccc(-n2c3nc(=O)[nH]c(=O)c-3cc3cc([N+](=O)[O-])ccc32)c1 |  | active: 11.6 µM
37 | Cc1ccc(C(=O)N/C(=C\C=C\c2ccccc2)C(=O)NCc2ccco2)cc1 | inactive: -13.4% | 
38 | CCN1C(=NCCCCO)N[C@@H](c2cccc(F)c2)C(C(=O)OC)=C1C | inactive: -6.62% | 
39 | COc1ccccc1N1CCN(/N=C/C=C\c2ccccc2[N+](=O)[O-])CC1 | inactive: 2.13% | 
40 | COc1ccc(Cl)cc1NC(=O)/C=C/C(=O)O | inactive: 1.84% | 
41 | CC(C)C(NC(=O)c1ccccc1)C(=O)NCCc1ccccc1 (stereo unspecified) | inactive: 0.0411% | 
42 | NC(=O)C1CCN(c2nc(-c3ccccc3N)cs2)CC1 | inactive: -2.5% | 
43 | C#CCNC(=O)C1=C[C@@H](c2ccccc2)[C@H](CCCO)[C@@H](OCC)O1 | inactive: 0.443% | 
44 | COc1cccc(NC(=O)c2oc3ccc(S(=O)(=O)N4CCOCC4)cc3c2C)c1 | inactive: 2.23% | 

Row | Structure (SMILES) | activity change, negative = inhibition | Potency
45 | CCCNC(=O)CCn1nc(-c2ccc(C)cc2)c2ccccc2c1=O | inactive: -3.06% | 
46 | O=C1NC[C@H](Cc2ccc(O)cc2)N(CC2CCCCC2)C1=O | inactive: 4.96% | 
47 | CC(=O)c1cc(-c2ccccc2)n(CC(=O)Nc2ccc(C)c(C)c2)c1C | inactive: -2.34% | 
48 | CCOC(=O)[C@@H]1[C@H]2COc3ccc(Br)cc3[C@@H]2N2C(=O)N(c3ccc(Br)cc3)C(=O)[C@]12C | inactive: -22.9% | 
49 | Clc1ccc2c(c1)CCc1cccnc1C2=C1CCNCC1 | inactive: 2.01% | 
50 | CC(C)(C)OC(=O)C[C@H]1C/C=C\C[C@H](CC(=O)N(CCO)Cc2ccccc2)C(=O)NC[C@H](c2ccccc2)OC1=O | inactive: 3.77% | 
51 | O=C(Oc1c(Cl)cc(Cl)c2cccnc12)c1cccs1 |  | active: 23.1 µM
52 | COc1cccc(-c2sc3ccc(OC)cc3c2-c2ccc(OCCN3CCCCC3)cc2)c1 |  | active: 18.4 µM
53 | COC(C[C@@H]1O[C@@H]1[C@@H](O)[C@@H](C)OCc1ccccc1)OC | inactive: -8.24% | 
54 | CC(C)(C)OC(=O)C[C@H]1C/C=C\C[C@H](CC(=O)N[C@@H](CO)Cc2ccccc2)C(=O)N[C@H](C(C)(C)C)COC1=O | inactive: 1.07% | 
55 | CN(C)CCC(c1ccc(Br)cc1)c1ccccn1 (stereo unspecified) | inactive: -7.28% | 
56 | O=C1C2C3c4ccccc4C(c4ccccc43)[C@@H]2C(=O)N1c1cccnc1 (stereo partly specified) | inactive: -0.141% | 
57 | COc1cccc(/C=N/NC(=O)c2[nH]nc3c2CCc2ccccc2-3)c1 |  | active: 17.8 µM
58 | C/C(CC(=O)Nc1ccc(Cl)cc1C(F)(F)F)=N\NC(N)=S |  | active: 11.2 µM
59 | O=C(NCc1nc2ccccc2[nH]1)C1=C[C@H](c2ccc(Br)cc2)C[C@H](OCc2ccc(CO)cc2)O1 | inactive: -11.5% | 
60 | O=C1N[C@@H](Cc2ccccc2)COC(=O)[C@@H](Cc2ccc(F)cc2)CC/C=C/C[C@H]1CC(=O)N(CCO)Cc1ccccc1 | inactive: -1.43% | 
61 | Cc1ccc(CNC(=O)CSc2nc3n[nH]c(C)c3c(=N)n2-c2cccc(C)c2)cc1 | inactive: 11.4% | 
62 | CC(C)[C@H](NC(=O)[C@@H]1CSCN1C(=O)OC(C)(C)C)C(=O)NCC1CCC(C(=O)O)CC1 (stereo partly specified) | inactive: 3.43% | 
63 | COc1ccccc1N1CCN(C(=O)C2CCCN(S(=O)(=O)c3ccc4c(c3)oc(=O)n4C)C2)CC1 (stereo unspecified) | inactive: -19.9% | 
64 | Cc1ccc2[nH]c3c(=O)n(CCCN4CCN(C)CC4)cnc3c2c1 | inactive: -12.6% | 
65 | O=C1/C(=C\c2cccnc2)SC(=S)N1c1ccc(F)cc1 | inactive: 1.83% | 
66 | O=C(CCC1CCCCC1)NCCN1C2=NC[C@H](Cc3ccccc3)N2C[C@H]1Cc1ccc(O)cc1 | inactive: 2.65% | 

Row | Structure (SMILES) | activity change, negative = inhibition | Potency
67 | C=CCC[C@@H](Cc1ccc(F)cc1)C(=O)OC[C@@H](Cc1c[nH]c2ccccc12)NC(=O)[C@@H](CC=C)CC(=O)N(CCO)Cc1ccccc1 | inactive: -2.53% | 
68 | C[C@@H](NC(=O)c1[nH]cnc1C(=O)Nc1ccc(Cl)cc1)c1ccccc1 | inactive: 11% | 
69 | COc1ccc2c(c1)OC[C@H]1[C@H]2N2C(=O)CNC(=O)[C@@]2(C)[C@H]1c1ccccc1 | inactive: -3.17% | 
70 | CN1CCN(C(=O)/C=C/c2ccc(Cl)cc2)CC1 | inactive: -2.23% | 
71 | O=C(O)COc1c(Cl)cc(/C=C2/NC(=O)NC2=O)cc1Br | inactive: -3.48% | 
72 | O=C(NCc1ccccc1)c1cc2ccccc2o1 | inactive: -0.125% | 
73 | CC(C)(C)OC(=O)C[C@H]1C/C=C\C[C@@H](CC(=O)N(CCO)Cc2ccccc2)C(=O)NC[C@H](c2ccccc2)OC1=O | inactive: -2.09% | 
74 | C[C@H]1COC(=O)[C@H](CC(=O)OC(C)(C)C)C/C=C\C[C@@H](CC(=O)N[C@H](CO)Cc2ccccc2)C(=O)N1 | inactive: 2.36% | 
75 | COC(C[C@H]1O[C@@H]1[C@@H](O)COCc1ccccc1)OC | inactive: 2.83% | 
76 | C=CC[C@@H](CC(=O)N[C@@H](CO)Cc1ccccc1)C(=O)N[C@H](COC(=O)[C@@H](CC=C)Cc1ccc(F)cc1)Cc1c[nH]c2ccccc12 | inactive: -1.85% | 
77 | CC(C)Oc1ccc2c(=O)c(-c3ccccc3)coc2c1 | inactive: -20.4% | 
78 | CC(=O)Nc1nc2ccc(-c3nc4ccccc4o3)cc2s1 |  | active: 14.6 µM
79 | C#CCNC(=O)C1=C[C@H](c2coc3ccccc3c2=O)[C@@H](CCCO)[C@H](OCC)O1 | inactive: 19.4% | 
80 | Cc1cccc([C@H](NC(=O)OC(C)(C)C)C(=O)OC(C)(C)C)c1 | inactive: -0.92% | 
81 | CCN(CC)c1ccc(NC(=O)CN2CCN(S(=O)(=O)c3cc(Cl)ccc3OC)CC2)cc1 | inactive: -29.5% | 
82 | CCc1nn2c(N)c(/C=C3\C=Nc4ccccc43)c(=O)nc2s1 | inactive: -0.478% | 
83 | C[C@@H]1COC(=O)[C@@H](CC(=O)OC(C)(C)C)C/C=C\C[C@H](CC(=O)NCCO)C(=O)N1 | inactive: 1.14% | 
84 | C[C@H](CO)N1C[C@H](C)[C@@H](CN(C)S(=O)(=O)c2ccc(F)cc2)Oc2ccc(NC(=O)Cc3cn(C)c4ccccc34)cc2C1=O | inactive: -0.95% | 
85 | CCN1C(=O)[C@H]2[C@@H](c3ccc(-c4ccc(OC)cc4)c(OC)c3)N3CCCC[C@@]3(C(=O)OC)[C@H]2C1=O | inactive: 7.68% | 
86 | Cc1onc(-c2ccccc2)c1-c1nc2cc(Cl)ccc2c(=O)o1 |  | active: 12.6 µM
